# Paper PMC4428384, “Differences in conformational dynamics within the Hsp90 chaperone family reveal mechanistic insights” (Frontiers in Molecular Biosciences, 2014)
# B1: EcHtpG-E58C, labeled with ATTO 488 or ATTO 550 (natural protein)
# chain: not shown
# modifications: ATTO 488 maleimide or ATTO 550 maleimide on the single cysteine (E58C)
# notes: Escherichia coli HtpG, the Hsp90 homolog; single cysteine variant E58C; The rows are protomer with protomer: donor- and acceptor-labeled copies in one dimer
# Legend:
# [1] = molecular target: the molecule itself; test: FRET or BRET; subunit exchange as in a1, in the presence of ADP
# [2] = molecular target: the molecule itself; test: FRET or BRET; subunit exchange as in a1, in the presence of ATP
# [3] = molecular target: the molecule itself; test: FRET or BRET; subunit exchange, dimer to monomers: ATTO 488 and ATTO 550 labeled proteins combined (400 nM each), rapidly mixed 1:1 with unlabeled protein (20 μM) in a stopped-flow device, 480 nm excitation, 590 nm cut-off filter; no nucleotide (apo)
protein,measurement,setting,value
B1,subunit exchange rate,[1],0.0036 s⁻¹
same,subunit exchange rate,[2],0.0035 s⁻¹
same,subunit exchange rate,[3],0.0028 s⁻¹
